Laboratory results reported in PubChem BioAssay (Tox21).
“And” between values parts separate entries of the source, which are not always exact repeats. Identical values can stand only once. This list was built around the results that the source calls inconclusive (neither active nor inactive); the mix of calls is not that of the screen. Where the call is inconclusive, the potency comes from a doubtful curve fit. A structure can be active in one record and inactive in another. The source made the active and inactive calls. Calls come from the whole dose curve; as a rule, active = well fitted inhibition curve with a large enough effect in the repeat runs; inconclusive = weak or mixed curves; inactive = no such curve, though single readings can be large or run the other way.

target: Cytochrome P450 3A4 (Homo sapiens) (UniProt P08684); test: Cytochrome P450 Family 3 Subfamily A Member 4 (CYP3A4) small molecule antagonists: luciferase reporter qHTS assay (AID 1671201); conditions: P450-Glo CYP3A4 enzyme, luciferin luminescence, 1 h; series mostly up to 115 µM; note: nearly all actives have a fitted effect of over 50% in size
Chain of UniProt P08684 (P08684 whole entry, looked up): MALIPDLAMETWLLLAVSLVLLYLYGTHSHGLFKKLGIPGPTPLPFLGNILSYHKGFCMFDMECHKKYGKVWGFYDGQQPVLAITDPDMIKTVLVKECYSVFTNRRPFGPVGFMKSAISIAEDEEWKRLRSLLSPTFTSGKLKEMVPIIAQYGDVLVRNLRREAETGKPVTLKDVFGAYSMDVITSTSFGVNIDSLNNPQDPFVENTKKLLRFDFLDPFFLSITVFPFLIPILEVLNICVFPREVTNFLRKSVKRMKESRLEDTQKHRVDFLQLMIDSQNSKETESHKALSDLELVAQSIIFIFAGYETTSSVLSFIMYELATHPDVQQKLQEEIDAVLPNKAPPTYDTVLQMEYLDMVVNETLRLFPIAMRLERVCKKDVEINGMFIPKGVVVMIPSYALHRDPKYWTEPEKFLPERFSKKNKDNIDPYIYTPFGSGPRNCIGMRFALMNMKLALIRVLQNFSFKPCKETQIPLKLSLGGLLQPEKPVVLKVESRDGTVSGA
How it was run: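 P450-Glo CYP3A4 system with proluciferin substrate; compounds preincubated 10 min RT with enzyme-substrate mix, then NADPH regeneration added for 1 h RT. Detection reagent 20 min, luminescence read as relative luminescence units.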
Potency is the fitted concentration of half-maximal effect; tags give direction and shape of the fitted curve.

Structure (SMILES) | Potency
C[C@@H]1CC[C@@]2(OC1)O[C@H]1[C@@H](O)[C@H]3[C@@H]4CC[C@H]5C[C@@H](O[C@@H]6O[C@H](CO)[C@H](O[C@@H]7O[C@H](CO)[C@@H](O)[C@H](O[C@@H]8OC[C@@H](O)[C@H](O)[C@H]8O)[C@H]7O[C@@H]7O[C@H](CO)[C@@H](O)[C@H](O[C@@H]8O[C@H](CO)[C@@H](O)[C@H](O)[C@H]8O)[C@H]7O)[C@H](O)[C@H]6O)[C@H](O)C[C@]5(C)[C@H]4CC[C@]3(C)[C@H]1[C@@H]2C | inconclusive: 94.9 µM [inhibitor, partial curve, poor fit]
CC(C)(c1cc(Cl)c(O)c(Cl)c1)c1cc(Cl)c(O)c(Cl)c1 | inconclusive: 89.4 µM [inhibitor, partial curve, poor fit]
COP(=O)(OC)OC(Br)C(Cl)(Cl)Br (stereo not drawn) | active: 79.8 µM
CCCCCCCCCc1ccc(O)cc1 | inconclusive: 20.2 µM [inhibitor, full curve] and inconclusive: 63.3 µM [inhibitor, partial curve]
C=CC(=O)OCC(COC(=O)C=C)(COC(=O)C=C)COC(=O)C=C | active: 1.26 µM
CO/N=C(/C1=NOCCO1)c1ccccc1Oc1ncnc(Oc2ccccc2Cl)c1F | inconclusive: 17.8 µM [inhibitor, full curve]
CC(C)[C@H](C(=O)OC(C#N)c1cccc(Oc2ccccc2)c1)c1ccc(OC(F)F)cc1 (stereo partly drawn) | inconclusive: 17.8 µM [inhibitor, full curve]
Cc1cc(N=Nc2ccccc2C)ccc1N | active: 1.59 µM and active: 7.1 µM
